Measurements: PubChem BioAssay (NCATS)
Inconclusive results, whose numbers are uncertain, are shown with a selection of clear calls. Potencies of inconclusive entries are left out as doubtful fits. Active and inactive are the calls of the source. Calls come from the whole dose curve; as a rule, active = well fitted cell-killing curve with a large enough effect; inconclusive = small, poorly fitted or top-dose-only effect, or effect the other way; inactive = no such curve, though single readings can be large or run the other way.

Assay: qHTS assay to identify small molecule inhibitors of chordoma cells - UCH-1 (AID 1259355); note: nearly all actives have a fitted effect of over 55% in size; for Potency: series mostly up to about 46 µM
Summary of the method: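 Seed 800 cells per well; incubate overnight at 37 C, 5% CO2. Add test compounds (15 concentrations), then the auranofin–topoisomerase-agent combination. Incubate 48hr, add CellTiter-Glo, wait 30min, read luminescence.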
Potency is the fitted concentration of half-maximal effect; tags give direction and shape of the fitted curve.

Row | SMILES | Potency
1 | COc1cc(OC)cc(OC)c1 | inconclusive [cytotoxic, single point]
2 | CCC(=O)OCC(=O)[C@@]1(OC(=O)CC)[C@H](C)C[C@H]2[C@H]3[C@H]([C@@H](O)C[C@@]21C)[C@@]1(C)C=CC(=O)C=C1C[C@H]3Cl | inconclusive [cytotoxic, full curve, poor fit]
3 | C[Si](C)(C)O[Si](C)(C)C | inactive
4 | C[S+](C)CCC(N)C(=O)O (centres undefined) | inactive
5 | CC1CCCC(C)N1NC(=O)c1ccc(Cl)c(S(N)(=O)=O)c1 (centres undefined) | inactive
6 | CCN(CC)C(=O)/C(C#N)=C/c1cc(O)c(O)c([N+](=O)[O-])c1 | inconclusive [cytotoxic]
7 | Nc1ccc(S(=O)(=O)Nc2ccccc2)cc1 | inactive
8 | OCCO[C@@H]1[C@@H](O)[C@H](O)[C@@H](CO)O[C@@H]1O | inconclusive [cytotoxic, full curve]
9 | CCCN1CCCC[C@H]1C(=O)Nc1c(C)cccc1C | inconclusive [cytotoxic, partial curve, poor fit]
10 | O=C(O)C1CCCN1 (centres undefined) | inconclusive [cytotoxic, full curve, poor fit]
11 | O=S1(=O)OC(c2ccc(O)cc2)(c2ccc(O)cc2)c2ccccc21 | inactive
12 | O=C(CCNNC(=O)c1ccncc1)NCc1ccccc1 | inactive
13 | CCOC(=O)OC(C)OC1=C(C(=O)Nc2ccccn2)N(C)S(=O)(=O)c2ccccc21 (centres undefined) | inconclusive [cytotoxic, partial curve, poor fit]
14 | CN1[C@@H]2CC(OC(=O)[C@H](CO)c3ccccc3)C[C@H]1[C@@H]1O[C@@H]12 (some centres undefined) | inconclusive [cytotoxic, full curve, poor fit]
15 | CC[C@@]1(c2ccccc2)NC(=O)N(C)C1=O | inactive
16 | Cc1ccc(C(=O)C(C)CN2CCCCC2)cc1 (centres undefined) | inconclusive [cytotoxic, partial curve, poor fit]
17 | COc1ccc(C[C@@H](C)NC[C@H](O)c2ccc(O)c(NC=O)c2)cc1 | inconclusive [cytotoxic, full curve, poor fit]
18 | CCCc1ncc(C[n+]2ccccc2C)c(N)n1 | inactive
19 | CC1(C)O[C@@H]2C[C@H]3[C@@H]4CCC5=CC(=O)C=C[C@]5(C)[C@H]4[C@@H](O)C[C@]3(C)[C@]2(C(=O)CO)O1 | inconclusive [cytotoxic, full curve, poor fit]
20 | C[C@@H](O)[C@H]1C(=O)N2C(C(=O)O)=C([C@H]3CCCO3)S[C@H]12 | inactive

Row | SMILES | Potency
21 | O=C(O)CCC(=O)C(=O)O | inconclusive [cytotoxic, full curve, poor fit]
22 | Nc1ccc(C(=O)Nc2ccccc2N)cc1 | inconclusive [cytotoxic, partial curve, poor fit]
23 | CCC(C)n1ncn(-c2ccc(N3CCN(c4ccc(OCC5COC(Cn6cncn6)(c6ccc(Cl)cc6Cl)O5)cc4)CC3)cc2)c1=O (centres undefined) | inconclusive [cytotoxic, full curve, poor fit]
24 | Cc1cc(/C=C/c2ccc3cc(N(C)C)ccc3[n+]2C)c(C)n1-c1ccccc1 | active: 5010 nM
25 | C[C@H](Cn1cnc2c(N)ncnc21)OCP(=O)(O)O | inactive
26 | Nc1c(Br)cc(Br)cc1CNC1CCC(O)CC1 (centres undefined) | inconclusive [cytotoxic, full curve, poor fit]
27 | CC(C)=CCC[C@@](C)(O)[C@H]1CC=C(C)CC1 | inactive
28 | Cc1cc2nc3c(=O)[nH]c(=O)nc-3n(C[C@H](O)[C@H](O)[C@H](O)CO)c2cc1C | inactive
29 | COc1cc(/C=C/C(=O)O[C@H]2CC[C@]34C[C@]35CC[C@]3(C)[C@@H]([C@H](C)CCC=C(C)C)CC[C@@]3(C)[C@@H]5CC[C@H]4C2(C)C)ccc1O | inconclusive [cytotoxic, full curve, poor fit]
30 | Cc1cc(-c2ccccc2)nnc1NCCN1CCOCC1 | inactive
31 | CNCC(=O)N[C@@H](CCCN=C(N)N)C(=O)N[C@H](C(=O)N[C@@H](Cc1ccc(O)cc1)C(=O)N[C@H](C(=O)N[C@@H](Cc1cnc[nH]1)C(=O)N1CCC[C@H]1C(=O)N[C@@H](C)C(=O)O)C(C)C)C(C)C | inactive
32 | CCC(=O)c1c(O)cc(O)cc1O | inconclusive [cytotoxic, full curve, poor fit]
33 | CC1(C)O[C@@H]2C[C@H]3[C@@H]4C[C@H](F)C5=CC(=O)C=C[C@]5(C)[C@H]4[C@@H](O)C[C@]3(C)[C@]2(C(=O)CO)O1 | inconclusive [cytotoxic, full curve, poor fit]
34 | CCCCC(CC)COC(=O)/C=C/c1ccc(OC)cc1 (centres undefined) | inactive
35 | CN(C)CCOc1ccccc1Cc1ccccc1 | inconclusive [cytotoxic, partial curve, poor fit]
36 | CCCC1O[C@@H]2C[C@H]3[C@@H]4CCC5=CC(=O)C=C[C@]5(C)[C@H]4[C@@H](O)C[C@]3(C)[C@]2(C(=O)CO)O1 (some centres undefined) | inconclusive [cytotoxic, full curve, poor fit]
37 | CC(=O)OCC(=O)[C@@]1(O)[C@H](C)C[C@H]2[C@@H]3CCC4=CC(=O)C=C[C@]4(C)[C@@]3(F)[C@@H](O)C[C@@]21C | inconclusive [cytotoxic, full curve, poor fit]
38 | CC(=O)Oc1c(C)c(C)c2c(c1C)CC[C@@](C)(CCC[C@H](C)CCC[C@H](C)CCCC(C)C)O2 | inconclusive [cytotoxic, full curve, poor fit]
39 | CCCC(=O)O[C@]1(C(=O)CCl)[C@H](C)C[C@@H]2[C@H]3CCC4=CC(=O)C=C[C@]4(C)[C@@]3(F)C(=O)C[C@@]21C | inconclusive [cytotoxic, full curve, poor fit]
